Reference: PubChem BioAssay AID1159614 (National Center for Advancing Translational Sciences (NCATS), 2016)
Hit rate of the full screen: of about 45,000 compounds, about 65 (0.1%) were called active. Calls follow the shape of the dose curve; as a rule, active = well fitted activation curve with a large enough effect; inconclusive = small, poorly fitted or top-dose-only effect; inactive = no such curve, though single readings can be large or run the other way. The list shows a part of the results.

molecular target: Galactocerebrosidase (Homo sapiens) (UniProt P54803); assay: A Novel Cell-Based Assay to Identify Small Molecules for B -Galactocerebrosidase; conditions: 145M-Twi-hGALC-G270D cells (Twitcher mouse brain line with human GALC G270D), HMU-beta-Gal fluorescence, 48 h; series mostly up to 57.5 µM; activation: at the top concentration; also: 0% is about no effect; nearly all actives have a fitted effect of over 65% in size
UniProt P54803, sequence (P54803 whole entry, looked up): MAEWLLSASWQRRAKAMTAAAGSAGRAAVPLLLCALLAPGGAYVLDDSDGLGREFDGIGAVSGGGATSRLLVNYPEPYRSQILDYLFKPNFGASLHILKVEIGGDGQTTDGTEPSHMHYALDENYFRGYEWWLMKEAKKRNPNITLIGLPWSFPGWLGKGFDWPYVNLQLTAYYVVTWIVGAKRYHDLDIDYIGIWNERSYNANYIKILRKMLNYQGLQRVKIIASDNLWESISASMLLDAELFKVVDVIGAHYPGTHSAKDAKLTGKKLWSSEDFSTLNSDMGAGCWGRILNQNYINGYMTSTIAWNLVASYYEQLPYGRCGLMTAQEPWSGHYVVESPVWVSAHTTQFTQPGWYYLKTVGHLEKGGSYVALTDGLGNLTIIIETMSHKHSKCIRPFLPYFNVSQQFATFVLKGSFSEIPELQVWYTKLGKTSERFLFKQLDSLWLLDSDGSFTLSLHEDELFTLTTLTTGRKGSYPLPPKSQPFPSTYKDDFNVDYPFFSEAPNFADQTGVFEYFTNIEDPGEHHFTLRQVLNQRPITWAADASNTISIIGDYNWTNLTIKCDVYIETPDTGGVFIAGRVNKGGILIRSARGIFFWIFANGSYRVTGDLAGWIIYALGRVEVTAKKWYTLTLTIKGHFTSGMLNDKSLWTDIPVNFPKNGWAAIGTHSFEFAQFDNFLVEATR
Method in brief: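 Fluorescence readout: HMU-β-gal cleavage by mutant GALC (0.1 mM final, citrate/phosphate pH 5.2 with 1 mg/mL taurocholate), stopped with carbonate/bicarbonate plus Triton X-100. Cells: murine Twitcher 145M-Twi expressing human G270D GALC; qHTS for activators.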

activation, inactive:
CC(=O)c1ccc(NC(=O)CSc2nccn2Cc2ccc3c(c2)OCO3)cc1 -13.5%
Cc1cc(SCC(=O)NCc2ccc(F)cc2)nc(=O)[nH]1 -2.65%
COc1cc(NC(=O)c2ncn(-c3ccccc3)n2)cc(OC)c1 -15.5%
Cc1ccc(NC(=O)CSc2nc(-c3ccco3)cc(C(F)(F)F)n2)cc1C -16.4%
O=C(COCc1cc(-c2ccco2)on1)Nc1cccc(Cl)c1Cl 2.77%
COc1ccc(C2N3CC4(C)CN2CC(c2ccccc2)(C3)C4=O)cc1 (stereo unspecified) -11.2%
Cc1ccc(NC(=O)c2nc(-c3ccncc3)no2)c(Cl)c1 -13.1%
CCOc1ccccc1-n1nnc(S(=O)(=O)c2ccc(C)cc2)c1N 5.52%
CCCCN(CC)CCCNC(=O)c1cn(CC)c2ccc(S(=O)(=O)N3CCOCC3)cc2c1=O -6.1%
O=C(c1cc(F)cc(F)c1)N1CCC(c2nc(-c3ccc(S(=O)(=O)N4CCCC4)cc3)no2)CC1 -4.11%
COc1ccc(OC)c(CCNC(=O)c2cc3c(=O)n(C)c4ccccc4c3n2C)c1 -10.6%
CCOc1ccc(NC(=O)CN2CCN(c3ccc(Cl)cc3)CC2)cc1 -8.24%
O=C(NCC1CCN(Cc2ccc(F)cc2)CC1)c1cc2ccc3cccnc3c2[nH]1 -14.1%
CCOc1ccc(NC(=O)Cn2c(=O)oc3cc(S(=O)(=O)N4CCC(C)CC4)ccc32)cc1 -6.33%
Cc1cc(=O)n2nc(N(C)CC(=O)NCc3ccc(Cl)cc3)sc2n1 -5.5%
CCOC(=O)c1cccc(NC(=O)C2CCCN(S(=O)(=O)c3cc(Br)cc4c3N(C(=O)CC)CC4)C2)c1 (stereo unspecified) -21.5%
COc1ccc(CN(C(=O)Cc2coc3ccc(C)cc23)C2CCS(=O)(=O)C2)cc1 (stereo unspecified) -15.8%
CCc1cccc(NC(=O)CCN2C(=O)c3ccccc3Sc3ncccc32)c1 1.92%
O=C(Cn1c(=O)nc(-c2ccccc2)c2cc(Cl)ccc21)NCCc1ccccc1 -9.26%
Cc1cc(=O)oc2cc(O[C@@H]3SC[C@@H](O)[C@H](O)[C@H]3O)ccc12 -14.3%
COc1cc(Cl)c(C)cc1NC(=O)c1cc2c(s1)-c1c(C)cccc1OC2 -8.77%
Cc1sc2ncn(CC(=O)N3CCN(c4ccc(F)cc4)CC3)c(=O)c2c1S(=O)(=O)N1CCN(c2ncccn2)CC1 -5.79%
Cc1cc2[nH]c(=O)c(=O)[nH]c2cc1S(=O)(=O)Nc1cccc(C(F)(F)F)c1 -10.3%
CCc1nn(CC(=O)N2CCN(c3cccc(C)c3C)CC2)c(=O)c2cc3sccc3n12 4.69%
CCC(=O)N1CCc2cc(S(=O)(=O)NC(CC(C)C)C(=O)NCc3ccc(C)cc3)ccc21 (stereo unspecified) -10.6%
Cc1ccc(O)c(-c2n[nH]c3c2C(c2ccccc2F)N(Cc2ccco2)C3=O)c1 (stereo unspecified) -16.8%
